# From PubChem BioAssay AID463173 (ICCB-Longwood Screening Facility, Harvard Medical School, 2010)
# Screen size: about 52,000 compounds; about 1,700 (3.3%) were called active. Cut-off read from the data, not from the text of the source: active = survival mostly below about 52% (no sharp cut-off); inactive = mostly above about 56%. The list shows a part of the results.
# System: Wild type
# Experiment: growth inhibition of S. aureus wild type versus tarO mutant, primary screen, teichoic acid synthesis inhibitors, RN4220, OD600 (AID 463173)
# Conditions: S. aureus RN4220 wild type/DeltatarO growth, OD600, 18 h, stronger effect = lower value, screened at 18.75 µg/mL (by protocol)
row,Structure (SMILES),survival
1,COc1cc(NC(=O)C(F)(F)F)c(OC)cc1Br,inactive: 120%
2,CCOC(=O)c1cccc(NC(=O)c2ncoc2-c2ccco2)c1,inactive: 135%
3,Cc1ccc(NC(=O)C2(C)Cc3ccccc3C(=O)O2)c(C)c1 (stereo not drawn),inactive: 108%
4,COc1ccc(CCNC(=O)c2ccc3c(c2)sc2nc(-c4ccccc4)cn23)cc1OC,inactive: 69%
5,Cc1ccccc1N(C)S(=O)(=O)c1nnc(NC(=O)c2ccco2)s1,inactive: 94%
6,CCOC(=O)c1cc(-c2ccc(OC)cc2)n(CCC(=O)NCCc2ccccc2)c1C,inactive: 88%
7,COc1cccc(C(=O)NCCc2csc3nc(-c4ccccc4F)nn23)c1OC,inactive: 70%
8,Cc1ccc(CNC(=O)Cn2c(SCC(=O)Nc3ccc(F)cc3)nc3ccccc32)cc1,inactive: 131%
9,Cc1cc(OCC(=O)NCCc2nc3ccccc3[nH]2)cc(C)c1Cl,inactive: 65%
10,N#C/C(=C\c1ccc(-c2ccccc2)o1)C(=O)Nc1ccccc1,inactive: 115%
11,COc1cccc(C2NC(C(=O)O)Cc3c2[nH]c2ccccc32)c1 (stereo not drawn),inactive: 118%
12,Cc1cc(C)c(S(=O)(=O)NCCS(=O)(=O)N2CCN(c3ccccc3)CC2)c(C)c1,inactive: 78%
13,O=S(=O)(c1ccccc1)c1nc(-c2ccccc2Cl)oc1N1CCCCCC1,active: 14%
14,Cc1cccc(C(=O)N2CCc3cc(CNC(=O)c4cc5ccccc5[nH]4)ccc32)c1,inactive: 72%
15,CCn1nc(C)c(CCN(C)C(=O)Nc2cccc(Cl)c2C)c1C,inactive: 79%
16,Cc1ccc(CNC(=O)C(C)n2c(=O)cc(C(F)(F)F)c3c(C)nn(C)c32)cc1 (stereo not drawn),inactive: 76%
17,COc1ccc(C(=O)NCC(C)C)c(OC)c1,inactive: 111%
18,CCS(=O)(=O)N1CCc2cc(C(=O)NCc3ccccc3OC)ccc21,inactive: 79%
19,CCOc1ccc(CCNC(=O)C2CCCN(S(=O)(=O)N(C)c3ccc(F)cc3)C2)cc1 (stereo not drawn),inactive: 87%
20,Cc1nnc(SCC(=O)N(C2CCCCC2)C2CCCCC2)[nH]c1=O,inactive: 117%

row,Structure (SMILES),survival
1,O=C(NCc1ccccc1)C(=O)Nc1c2c(nn1-c1ccc(F)cc1)CSC2,inactive: 82%
2,C1CCC(N2CCN(C3CCCC3)CC2)C1,inactive: 104%
3,COc1cccc(NC(=O)C2CCN(c3ccc(Sc4ccc(C)cc4)nn3)CC2)c1,inactive: 82%
4,CCn1cc(CNC(=O)c2cc(-c3ccc(C)cc3)nc3ccc(Br)cc23)c(C)n1,inactive: 81%
5,COc1cccc(NC(=O)C2CCC(CNS(=O)(=O)c3ccc4c(c3)CCCC(=O)N4)CC2)c1 (stereo not drawn),inactive: 71%
6,Cc1ccccc1-c1nc2scc(CCNC(=O)c3ccco3)n2n1,inactive: 82%
7,CCc1ccc2oc(-c3ccc(C)c(NC(=O)/C=C/c4ccco4)c3)nc2c1,inactive: 75%
8,Clc1ccccc1OCCSc1nnc(-c2cccs2)o1,inactive: 65%
9,O=C(CSc1nc(=O)n(Cc2ccco2)c2c1CCC2)NCc1ccccc1,inactive: 72%
10,N#Cc1c(C(F)(F)F)cc(=O)n2c1[nH]c1ccccc12,inactive: 44%
11,COc1ccc(N2CCN(C(=O)CSc3nnc4c5ccccc5n(CC(=O)O)c4n3)CC2)cc1,inactive: 101%
12,Cc1sc2ncn(CC(=O)N3CCN(c4ccccc4F)CC3)c(=O)c2c1S(=O)(=O)N1CCC(C)CC1,inactive: 91%
13,Cc1cccc(OCCSc2nnc(-c3cccs3)o2)c1,inactive: 82%
14,Cc1ccc2nc(/C(C#N)=C/c3ccccc3F)[nH]c2c1,inactive: 46%
15,O=C(NC1CCCC1)c1ccc2c(=O)n(Cc3ccccc3)c(SCc3ccccc3F)nc2c1,active: -3%
16,COc1ccc(Cl)cc1-n1cc(-c2ccccc2)nc1SCC(=O)Nc1ccc(C)cc1,inactive: 91%
17,COc1ccccc1CNC(=O)C1CCN(c2nc3ccc(C)cc3[nH]2)CC1,inactive: 73%
18,CCc1ccc(CNC(=O)CCCn2ccc3cc(S(=O)(=O)N4CCCC4)ccc32)cc1,inactive: 63%
19,CCOc1ccc(CCNC(=O)c2cc3c(-c4ccccc4F)nn(C)c3s2)cc1,inactive: 69%
20,Cc1ccc(S(=O)(=O)c2nc(-c3ccc(F)cc3)oc2SCC(=O)NC2CCCCC2)cc1,inactive: 139%

row,Structure (SMILES),survival
1,COc1ccc(-c2cc(-c3ccc(C)cc3)nc3c2COc2ccccc2-3)cc1,inactive: 68%
2,CCC(Cn1nnc2ccccc2c1=O)NC(=O)Nc1ccccc1OC (stereo not drawn),inactive: 93%
3,COc1ccc(CCNC(=O)c2ccc3c(c2)CCN3S(C)(=O)=O)cc1OC,inactive: 103%
4,COc1ccc(Cn2cc(S(=O)(=O)c3ccc(C)cc3)c(=O)c3cc(F)ccc32)cc1,inactive: 77%
5,Cc1nc(-c2ccc(S(=O)(=O)Nc3cc(Cl)ccc3C)cc2)co1,inactive: 73%
6,COc1ccc2c(CNCCc3ccc(SC)cc3)c(C(=O)O)n(Cc3ccc(F)cc3)c2c1,inactive: 112%
7,CCCOc1ccc(Cc2c(O)nc(N)[nH]c2=O)cc1C,inactive: 114%
8,COc1ccc2c(c1)c(=O)c(C(=O)c1ccccc1)cn2CC(=O)Nc1ccc2c(c1)OCO2,inactive: 82%
9,COc1ccc(/C=C(\NC(=O)c2ccccc2)C(=O)N2CCN(C)CC2)cc1,inactive: 104%
10,O=c1c2ccccc2nc(/C=C/c2cccc3ccccc23)n1-c1ccc(F)cc1F,inactive: 125%
11,CCOc1ccc(NC(=O)c2oc3ccccc3c2NC(=O)COc2cccc(OC)c2)cc1,inactive: 85%
12,Cc1cccc(CN2C(=O)c3ccccc3Sc3ccc(C(=O)NCc4ccco4)cc32)c1,inactive: 75%
13,CCS(=O)(=O)c1ncc(Cl)c(C(=O)N2CCN(c3ccc(OC)cc3)CC2)n1,inactive: 87%
14,CCC(CC)C(=O)Nc1nnc(S(=O)(=O)N2CCCCCC2)s1,inactive: 96%
15,CCC(Sc1nc2c(sc3ccccc32)c(=O)n1CCc1ccc(OC)c(OC)c1)C(=O)N(CC)CC (stereo not drawn),inactive: 67%
16,NS(=O)(=O)c1ccc(CCNC(=O)C2CCN(c3ncnc4c3nc3n4CCCCC3)CC2)cc1,inactive: 84%
17,Cc1ccc(CNC(=O)CCc2cn(C)c3ccccc23)cc1,inactive: 65%
18,CC1CCN(S(=O)(=O)N2CCC(C(=O)NCc3ccccc3Cl)CC2)CC1,inactive: 81%
